Here are results for 12 cell lines from the supplement of paper PMC4967469.

IC50 is the fitted dose that halves viability relative to control wells, and lower means more sensitive; where the fit passes the top or lowest dose, that dose stands as a limit. AUC sums up the same curve from the lowest dose to the 256-fold higher top dose; the more sensitive the line, the further below 1. Any top dose called inferred was derived from the fitted curves, not read from the paper. For part of these data: Where an entry number is given, a second screen of the drug exists; the two often differ.

Compound in one assay: O=C(c1cc(Cc2n[nH]c(=O)c3ccccc23)ccc1F)N1CCN(C(=O)C2CC2)CC1 [Olaparib]
The assay is described as follows: Viability of human cancer cell lines after 72 h of drug (GDSC screen). The note with it: top dose 5 µM; screen: GDSC drug entry 1017; top dose inferred. The protocol:
(§1)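 Human cancer cell lines in 384-well plates, medium with 10% serum, drug for 72 h over a 256-fold dose range (nine 2-fold or five 4-fold steps up to the top dose). Adherent lines were fixed and stained with the nucleic acid dye Syto60, suspension lines read with resazurin; signal relative to control wells, capped at 0 and 100%. One two-parameter sigmoid per drug and line, fitted in a mixed model over all curves with the slope shared within a line.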
Consider BB65-RCC (kidney, adherent), for which the AUC was 0.977 and the 50% inhibitory concentration (IC50) is greater than 5 µM.
C2BBe1 (large intestine, adherent): the AUC is 0.967 and the IC50 is greater than 5 µM.
CL-11 (large intestine, adherent): the AUC was found to be 0.976 and the IC50 was greater than 5 µM.
LB2241-RCC (kidney, adherent): the AUC stood at 0.978 and the IC50 is greater than 5 µM.
Take LS-123 (large intestine, adherent): the AUC was 0.966 and the IC50 was greater than 5 µM.
Turning to NCI-H716 (large intestine, suspension), the AUC was determined as 0.801 and the half-inhibitory concentration (IC50) is 3.21 µM.
As to NTERA-2 cl.D1 (testis, adherent), the AUC is 0.713 and the IC50 was found to be 1.24 µM.
For “PL-21 (acute myeloid leukaemia, suspension)” the same measures were 0.983 and greater than 5 µM.
In the case of SK-N-DZ (neuroblastoma, adherent), the AUC was 0.982 and the half-maximal inhibitory concentration (IC50) was greater than 5 µM.
As for no-10 (glioma, adherent), the AUC amounted to 0.983 and the IC50 was greater than 5 µM.

The same assay, now with this note: top dose 10 µM; screen: GDSC drug entry 1495.
BB65-RCC (kidney, adherent): the AUC was 0.956 and the IC50 is greater than 10 µM.
Consider C2BBe1 (large intestine, adherent), for which the AUC was found to be 0.984 and the half-maximal inhibitory concentration (IC50) is greater than 10 µM.
Regarding CL-11 (large intestine, adherent), the AUC stood at 0.979 and the 50% inhibitory concentration (IC50) is greater than 10 µM.
On the same counts, the results for IST-MES1 (mesothelioma, adherent) are 0.903 and greater than 10 µM.
Take LB2241-RCC (kidney, adherent): the AUC is 0.922 and the half-inhibitory concentration (IC50) is greater than 10 µM.
LS-123 (large intestine, adherent): the AUC was determined as 0.942 and the half-inhibitory concentration (IC50) is greater than 10 µM.
With NCI-H716 (large intestine, suspension), the AUC worked out at 0.979 and the IC50 is greater than 10 µM.
On the same counts, the results for NTERA-2 cl.D1 (testis, adherent) are 0.362 and 0.26 µM.
“PL-21 (acute myeloid leukaemia, suspension)”: the AUC was found to be 0.968 and the half-maximal inhibitory concentration (IC50) was greater than 10 µM.
For SK-N-DZ (neuroblastoma, adherent) the same measures were 0.985 and greater than 10 µM.
On to SW872 (soft tissue, adherent), for which the AUC turned out to be 0.979 and the half-inhibitory concentration (IC50) is greater than 10 µM.
no-10 (glioma, adherent): the AUC stood at 0.956 and the 50% inhibitory concentration (IC50) was greater than 10 µM.

Compound in a further assay: CNC(=O)c1ccc(Nc2cc(Nc3ccccc3S(=O)(=O)C(C)C)c3cc[nH]c3n2)nc1 [HG-5-113-01]
The assay is described as above. The note with it: top dose 10 µM; top dose inferred. The protocol:
as §1
With BB65-RCC (kidney, adherent), the AUC is 0.781 and the IC50 is 4.83 µM.
As to C2BBe1 (large intestine, adherent), the AUC came out at 0.857 and the half-inhibitory concentration (IC50) was found to be 9.99 µM.
As for CL-11 (large intestine, adherent), the AUC was 0.772 and the half-inhibitory concentration (IC50) turned out to be 4.37 µM.
For IST-MES1 (mesothelioma, adherent) the same measures were 0.813 and 5.45 µM.
On the same counts, the results for LB2241-RCC (kidney, adherent) are 0.645 and 1.66 µM.
As for LS-123 (large intestine, adherent), the AUC was 0.726 and the IC50 worked out at 3.46 µM.
Regarding NCI-H716 (large intestine, suspension), the AUC came out at 0.661 and the half-maximal inhibitory concentration (IC50) worked out at 1.98 µM.
Turning to NTERA-2 cl.D1 (testis, adherent), the AUC was 0.602 and the half-inhibitory concentration (IC50) came out at 1.19 µM.
With “PL-21 (acute myeloid leukaemia, suspension)”, the AUC worked out at 0.821 and the IC50 was 7.11 µM.
With SK-N-DZ (neuroblastoma, adherent), the AUC is 0.502 and the half-inhibitory concentration (IC50) was 0.634 µM.
SW872 (soft tissue, adherent): the AUC worked out at 0.787 and the half-inhibitory concentration (IC50) came out at 3.9 µM.
On the same counts, the results for no-10 (glioma, adherent) are 0.873 and greater than 10 µM.

Compound in the next assay: CC(C)=CC[C@@H](O)C1=CC(=O)c2c(O)ccc(O)c2C1=O [Shikonin]
The description is as above. The note with it: top dose 16 µM; top dose inferred. The protocol: as §1
For the cell line BB65-RCC (kidney, adherent), the AUC is 0.493 and the concentration for half-maximal inhibition (IC50) came out at 0.957 µM.
Take C2BBe1 (large intestine, adherent): the AUC was found to be 0.473 and the IC50 is 0.833 µM.
For CL-11 (large intestine, adherent) the same measures were 0.768 and 6.74 µM.
As to IST-MES1 (mesothelioma, adherent), the AUC was 0.597 and the IC50 amounted to 1.85 µM.
Turning to LB2241-RCC (kidney, adherent), the AUC was found to be 0.542 and the half-inhibitory concentration (IC50) amounted to 1.32 µM.
For the cell line LS-123 (large intestine, adherent), the AUC is 0.398 and the IC50 turned out to be 0.48 µM.
As to NCI-H716 (large intestine, suspension), the AUC worked out at 0.976 and the IC50 is greater than 16 µM.
For NTERA-2 cl.D1 (testis, adherent), the AUC turned out to be 0.243 and the IC50 was 0.183 µM.
In the case of “PL-21 (acute myeloid leukaemia, suspension)”, the AUC is 0.439 and the half-maximal inhibitory concentration (IC50) was found to be 0.664 µM.
Consider SK-N-DZ (neuroblastoma, adherent), for which the AUC was 0.551 and the IC50 turned out to be 1.37 µM.
On to SW872 (soft tissue, adherent), for which the AUC came to 0.335 and the half-maximal inhibitory concentration (IC50) worked out at 0.365 µM.
Regarding no-10 (glioma, adherent), the AUC was 0.336 and the IC50 worked out at 0.313 µM.

Compound in another assay: Cc1ccc(-n2nc(C(C)(C)C)cc2NC(=O)Nc2ccc(OCCN3CCOCC3)c3ccccc23)cc1 [BIRB 0796]
The description is as above. The conditions noted are these: top dose 10 µM; top dose inferred. The protocol:
as §1
Regarding C2BBe1 (large intestine, adherent), the AUC turned out to be 0.918 and the IC50 is greater than 10 µM.
With CL-11 (large intestine, adherent), the AUC worked out at 0.985 and the half-maximal inhibitory concentration (IC50) is greater than 10 µM.

Compound in another assay: COc1cc(-c2nn([C@H]3CC[C@H](N4CCN(C(C)=O)CC4)CC3)c3ncnc(N)c23)ccc1NC(=O)c1cc2ccccc2n1C [A-770041]
Described as above. The conditions noted are these: top dose 5.12 µM; top dose inferred. The protocol:
as §1
For BB65-RCC (kidney, adherent), the AUC was 0.847 and the IC50 is 4.64 µM.
On to C2BBe1 (large intestine, adherent), for which the AUC came out at 0.627.
With CL-11 (large intestine, adherent), the AUC came out at 0.98 and the IC50 is greater than 5.12 µM.
On the same counts, the results for IST-MES1 (mesothelioma, adherent) are 0.675 and 0.987 µM.
Consider LB2241-RCC (kidney, adherent), for which the AUC stood at 0.893 and the IC50 was greater than 5.12 µM.
For LS-123 (large intestine, adherent) the same measures were 0.812 and 3.93 µM.
On to NCI-H716 (large intestine, suspension), for which the AUC amounted to 0.975 and the IC50 was greater than 5.12 µM.
For NTERA-2 cl.D1 (testis, adherent) the same measures were 0.884 and greater than 5.12 µM.
For “PL-21 (acute myeloid leukaemia, suspension)”, the AUC is 0.963 and the IC50 was greater than 5.12 µM.
As for SK-N-DZ (neuroblastoma, adherent), the AUC was 0.945 and the IC50 was greater than 5.12 µM.
For SW872 (soft tissue, adherent), the AUC was determined as 0.559 and the half-inhibitory concentration (IC50) is 0.456 µM.
For no-10 (glioma, adherent) the same measures were 0.692 and 1.26 µM.

Compound in a further assay: CCNc1cc(NC2CCC(O)CC2)nc(Nc2ccc3c(ccn3Cc3ccccc3)c2)n1 [CGP-082996 (CINK4)]
Described as above. The note with it: top dose 5.12 µM; top dose inferred. The protocol:
as §1
Regarding BB65-RCC (kidney, adherent), the AUC stood at 0.938 and the IC50 was greater than 5.12 µM.
C2BBe1 (large intestine, adherent): the AUC is 0.98 and the IC50 was greater than 5.12 µM.
For CL-11 (large intestine, adherent) the same measures were 0.987 and greater than 5.12 µM.
Regarding IST-MES1 (mesothelioma, adherent), the AUC is 0.981 and the half-inhibitory concentration (IC50) was greater than 5.12 µM.
As for LB2241-RCC (kidney, adherent), the AUC worked out at 0.971 and the IC50 was greater than 5.12 µM.

One may read the IC50 as the concentration that gives 50% inhibition.
